Results: publication PMC5640511 (Current Biology, 2017)

Experiments:
Assay in all cases: SEC
[1] = target: BubR1 1-571 ΔLL (recombinant, without Bub3) (human, UniProt O60566 1-571, ΔLL (deletion of residues 363–396))
[2] = target: BubR1 1-571 wt (recombinant, without Bub3) (human, UniProt O60566 1-571)
BubR1 1-571 ΔLL/Bub3 = BubR1 1-571 ΔLL/Bub3 (human, UniProt O60566;O43684, ΔLL (deletion of residues 363–396))
BubR1 1-571 wt/Bub3 = BubR1 1-571 wt/Bub3 (human, UniProt O60566;O43684)

Measured: binding result

B1: Mad2 (recombinant) (natural protein)
chain: not shown
binds: all assays above
